Laboratory results as given in the GPR68 mutational scans of Howard et al. (2025).
Scores whose standard error is large were omitted. The source holds two more conditions with little spread; they are left out. In variant names, del marks residues removed and ins residues inserted between the two positions. For part of these data: How much ogerin was present is not stated here.

B1: GPR68, Q15743 (parent)
chain: MGNITADNSSMSCTIDHTIHQTLAPVVYVTVLVVGFPANCLSLYFGYLQIKARNELGVYLCNLTVADLFYICSLPFWLQYVLQHDNWSHGDLSCQVCGILLYENIYISVGFLCCISVDRYLAVAHPFRFHQFRTLKAAVGVSVVIWAKELLTSIYFLMHEEVIEDENQHRVCFEHYPIQAWQRAINYYRFLVGFLFPICLLLASYQGILRAVRRSHGTQKSRKDQIQRLVLSTVVIFLACFLPYHVLLLVRSVWEASCDFAKGVFNAYHFSLLLTSFNCVADPVLYCFVSETTHRDLARLRGACLAFLTCSRTGRAREAYPLGAPEASGKSGAQGEEPELLTKLHPAFQTPNSPGSGGFPTGRLA

Experiments:
[1] = variants of: B1; experiment: cAMP reporter score (Enrich2 score, wild type = 0); higher = more signal; HEK293T, FACS bins
[2] = variants of: B1; experiment: surface expression score (Enrich2 score, wild type = 0); higher = more signal; HEK293T, FACS bins

Variant	cAMP reporter score ([1]; pH 5.5)	cAMP reporter score ([1]; pH 6.5, modulator: ogerin)	surface expression score [2]	cAMP reporter score ([1]; pH 6)	cAMP reporter score ([1]; pH 6, modulator: ogerin)
MGNITADNSSMSCTIDHTIHQTLAPVVYVTVLVVGFPANCLSLYFGYLQIKARNELGVYLCNLTVADLFYICSLPFWLQYVLQHDNWSVGDLSCQVCGILLYENIYISVGFLCCISVDRYLAVAHPFRFHQFRTLKAAVGVSVVIWAKELLTSIYFLMHEEVIEDENQHRVCFEHYPIQAWQRAINYYRFLVGFLFPICLLLASYQGILRAVRRSHGTQKSRKDQIQRLVLSTVVIFLACFLPYHVLLLVRSVWEASCDFAKGVFNAYHFSLLLTSFNCVADPVLYCFVSETTHRDLARLRGACLAFLTCSRTGRAREAYPLGAPEASGKSGAQGEEPELLTKLHPAFQTPNSPGSGGFPTGRLA [H89V]	-0.94	-0.553	1.1	–	–
MGNITADNSSMSCTIDHTIHQTLAPVVYVTVLVVGFPANCLSLYFGYLQIKARNELGVYLCNLTVADLFYICSLPFWLQYVLQHDNWSYGDLSCQVCGILLYENIYISVGFLCCISVDRYLAVAHPFRFHQFRTLKAAVGVSVVIWAKELLTSIYFLMHEEVIEDENQHRVCFEHYPIQAWQRAINYYRFLVGFLFPICLLLASYQGILRAVRRSHGTQKSRKDQIQRLVLSTVVIFLACFLPYHVLLLVRSVWEASCDFAKGVFNAYHFSLLLTSFNCVADPVLYCFVSETTHRDLARLRGACLAFLTCSRTGRAREAYPLGAPEASGKSGAQGEEPELLTKLHPAFQTPNSPGSGGFPTGRLA [H89Y]	-0.174	-0.761	-0.624	-0.433	-0.531
MGNITADNSSMSCTIDHTIHQTLAPVVYVTVLVVGFPANCLSLYFGYLQIKARNELGVYLCNLTVADLFYICSLPFWLQYVLQHDNWSTGDLSCQVCGILLYENIYISVGFLCCISVDRYLAVAHPFRFHQFRTLKAAVGVSVVIWAKELLTSIYFLMHEEVIEDENQHRVCFEHYPIQAWQRAINYYRFLVGFLFPICLLLASYQGILRAVRRSHGTQKSRKDQIQRLVLSTVVIFLACFLPYHVLLLVRSVWEASCDFAKGVFNAYHFSLLLTSFNCVADPVLYCFVSETTHRDLARLRGACLAFLTCSRTGRAREAYPLGAPEASGKSGAQGEEPELLTKLHPAFQTPNSPGSGGFPTGRLA [H89T]	0.583	-0.895	1.16	-0.775	0.06
MGNITADNSSMSCTIDHTIHQTLAPVVYVTVLVVGFPANCLSLYFGYLQIKARNELGVYLCNLTVADLFYICSLPFWLQYVLQHDNWSWGDLSCQVCGILLYENIYISVGFLCCISVDRYLAVAHPFRFHQFRTLKAAVGVSVVIWAKELLTSIYFLMHEEVIEDENQHRVCFEHYPIQAWQRAINYYRFLVGFLFPICLLLASYQGILRAVRRSHGTQKSRKDQIQRLVLSTVVIFLACFLPYHVLLLVRSVWEASCDFAKGVFNAYHFSLLLTSFNCVADPVLYCFVSETTHRDLARLRGACLAFLTCSRTGRAREAYPLGAPEASGKSGAQGEEPELLTKLHPAFQTPNSPGSGGFPTGRLA [H89W]	1.37	3.35	0.316	3.06	1.03
